Experimental data taken from article PMC7819943, “Rice protein-binding microarrays: a tool to detect cis-acting elements near promoter regions in rice”.
The list shows a part of the results.

Each sequence was assayed against T1, OsWOX13 (Oryza sativa, UniProt Q5QMM3 1-267) (assay: protein-binding microarray (RPBM); PBS, 2% BSA, 51.3 ng/ul salmon testes DNA, 50 uM zinc acetate, 200 nM TF, 25 C, 1 h; high values mean tight binding). Details: protein: recombinant; tags: N-terminal polyhistidine and DsRed monomer fusion (pET32a); label: CyDye5-dUTP incorporated in the synthesized complementary strand; 3' TTTTT single-stranded linker to array surface; dsDNA, one strand shown.
T1 sequence: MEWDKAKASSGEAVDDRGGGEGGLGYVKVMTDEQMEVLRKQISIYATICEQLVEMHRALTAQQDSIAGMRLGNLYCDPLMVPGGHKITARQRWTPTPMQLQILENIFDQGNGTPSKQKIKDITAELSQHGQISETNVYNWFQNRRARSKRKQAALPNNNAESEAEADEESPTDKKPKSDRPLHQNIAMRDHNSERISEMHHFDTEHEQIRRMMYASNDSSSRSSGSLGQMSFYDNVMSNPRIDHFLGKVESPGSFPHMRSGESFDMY
Procedure, shortened: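 Transcription factors were each fused at the N-terminus to a polyhistidine tag plus DsRed and expressed in E. coli BL21-CodonPlus before Ni–NTA purification. Binding to a double-stranded custom Agilent array was carried out with 200 nM protein at 25 °C for 1 h in PBS, 2% BSA, salmon testes DNA and 50 µM zinc acetate. The binding signal is per-feature fluorescence intensity, in arbitrary units, on an Axon 4000B scanner.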
For “ACCTTCAATTAATTTTGCTTCAGTTTTCATCAGAAAGGCTCGGAGTCACCTAGTGCAG”, the binding signal was 25800 fluorescence intensity (a.u.).
“TATTAGATTACTCTAATTATTGCGCGTGGCTGAGGTAAACCGGAGTCACCTAGTGCAG” was tested, and the binding signal was 14000 fluorescence intensity (a.u.).
For “CATCACATAATTTCCTAAATTTCGTAGGATACTATCAAAACGGAGTCACCTAGTGCAG”, the binding signal was 3400 fluorescence intensity (a.u.).
With “CTACTACAATGATTAGATGGTTCTAAACTTCTAATGTAATCGGAGTCACCTAGTGCAG” the binding signal was 12500 fluorescence intensity (a.u.).
“TACAGCCAATTAAACAATTATTGGAGTGTCCATCAGCTATCGGAGTCACCTAGTGCAG” was tested, and the binding signal was 20600 fluorescence intensity (a.u.).
“AACAATCTAGAATTGGATTAGACACATCTTAGTTTCATGACGGAGTCACCTAGTGCAG” was tested, and the binding signal was 3270 fluorescence intensity (a.u.).
With “CACTAATACTGTATGATTTAAACATAACACAATGTATGCCCGGAGTCACCTAGTGCAG” the binding signal was 10900 fluorescence intensity (a.u.).
For “CATGTGCCAATCAAGCCCGAGAACGGAAAACCCGCAGGCGCGGAGTCACCTAGTGCAG”, the binding signal was 10900 fluorescence intensity (a.u.).
With “TGCGATTAACTGGACTTGTTCCTGCAGACACACGGGCAGTCGGAGTCACCTAGTGCAG” the binding signal was 8480 fluorescence intensity (a.u.).
For “ATATGTTAATAAATCTCATTAACATCTATATGAATGTGAGCGGAGTCACCTAGTGCAG”, the binding signal was 3710 fluorescence intensity (a.u.).
With “CCTAAAATTAACCCCAAAATTGTGTTTTAAAATTTTACTTCGGAGTCACCTAGTGCAG” the binding signal was 4660 fluorescence intensity (a.u.).
In the case of “ATTTTAACTTTAATTTACTCACGTGTACTCTCGAATAATTCGGAGTCACCTAGTGCAG”, the binding signal is reported as 9010 fluorescence intensity (a.u.).
For “ACAAATTAGCTATTATATTGGCTATAGATGATTTGGAGTACGGAGTCACCTAGTGCAG”, the binding signal was 42300 fluorescence intensity (a.u.).
In the case of “CCTCAATCATTCCCATCCTCGTTCATCCGTCAGTGGCCCCCGGAGTCACCTAGTGCAG”, the binding signal is reported as 18500 fluorescence intensity (a.u.).
With “CTTCAAATTTGATCCTGCCATACAAGTGACCTCTTTGGTTCGGAGTCACCTAGTGCAG” the binding signal was 3840 fluorescence intensity (a.u.).
“TACATAATAATTATTTCTTGTGCTCTGAGTAACGTTTTAGCGGAGTCACCTAGTGCAG” was tested, and the binding signal was 9470 fluorescence intensity (a.u.).
For “GACATTAATTCTTTTACTTAATTAAGATCATTGTTTAATACGGAGTCACCTAGTGCAG”, the binding signal was 10400 fluorescence intensity (a.u.).
In the case of “CACAATCCAATCACCTCCTCTCTTGTTGCCTCCCAAAACCCGGAGTCACCTAGTGCAG”, the binding signal is reported as 6720 fluorescence intensity (a.u.).
With “CATGATGAGTGTCTAATAACTAAAACAACCCCTCCAAAATCGGAGTCACCTAGTGCAG” the binding signal was 10200 fluorescence intensity (a.u.).
In the case of “AATGACTGATTAATTAGGCTTAATAAATTCATCTCGCAGTCGGAGTCACCTAGTGCAG”, the binding signal is reported as 59600 fluorescence intensity (a.u.).
In the case of “TCCTTAATTTTGTTTGAACTTTGATTTCTAGTTTATGAAACGGAGTCACCTAGTGCAG”, the binding signal is reported as 15600 fluorescence intensity (a.u.).
“TATTCAATTATAGATTTAATAAAACTATGGTGATGTTGTACGGAGTCACCTAGTGCAG” was tested, and the binding signal was 17700 fluorescence intensity (a.u.).
With “ATTTCTAATTACATATAATATATATATACTAATTGGAGTACGGAGTCACCTAGTGCAG” the binding signal was 23300 fluorescence intensity (a.u.).
“CCTAGATTTGACAGTTGTCAAGAAAGTATCTAAACATCCTCGGAGTCACCTAGTGCAG” was tested, and the binding signal was 30400 fluorescence intensity (a.u.).
With “GCTGATTGAGGCGGCGGCGGCGATCCGTGCTGCGCGCTGTCGGAGTCACCTAGTGCAG” the binding signal was 43200 fluorescence intensity (a.u.).
“TGTGATGTATTTGATTTATGATGTATTTATTTGTGTGTATCGGAGTCACCTAGTGCAG” was tested, and the binding signal was 20700 fluorescence intensity (a.u.).
“GTTCAAGATACAAATTAGATTGGTTAAGGGAGCTAAAGTGCGGAGTCACCTAGTGCAG” was tested, and the binding signal was 14200 fluorescence intensity (a.u.).
“ATAATTTATTTTAGAAATTGTTTAAGATGTTGTATCACAACGGAGTCACCTAGTGCAG” was tested, and the binding signal was 9680 fluorescence intensity (a.u.).
With “ATTCAATTCCAATCTATGAACTTTTGTTGTATTAGAAAACCGGAGTCACCTAGTGCAG” the binding signal was 4620 fluorescence intensity (a.u.).
With “TGAGATAAAATTGACAAATGTTAAGGAGATATACACTTGGCGGAGTCACCTAGTGCAG” the binding signal was 27900 fluorescence intensity (a.u.).
In the case of “TCCCAGCGCTGATTGTTACCGCGCCGCACAAAATAGGAGACGGAGTCACCTAGTGCAG”, the binding signal is reported as 7900 fluorescence intensity (a.u.).
In the case of “CATAGATAGATAAAGACAATACTTTTGGAGTAAGTGCCGGCGGAGTCACCTAGTGCAG”, the binding signal is reported as 8240 fluorescence intensity (a.u.).
“AGTTCCAATCAAAGCAATTAATTAACCATTTAATCGCCCCCGGAGTCACCTAGTGCAG” was tested, and the binding signal was 47900 fluorescence intensity (a.u.).
For “AAAATTACAGTCTTATTTAACTAAAATTACATATGTAAATCGGAGTCACCTAGTGCAG”, the binding signal was 5170 fluorescence intensity (a.u.).
In the case of “AATCTGGACAAATGATTGTTCACGTTCATCCTTAGATGTTCGGAGTCACCTAGTGCAG”, the binding signal is reported as 5690 fluorescence intensity (a.u.).
For “TGCATCTATCAACCCTGTAAATTTCTGGGTTCTCTACAGACGGAGTCACCTAGTGCAG”, the binding signal was 6400 fluorescence intensity (a.u.).
For “CTAATATTTAATTAATCATCATTGCGTTAATCGCTCGAGACGGAGTCACCTAGTGCAG”, the binding signal was 19200 fluorescence intensity (a.u.).
“ATTCAATTAGGAGCAAGAAATGAGGGAGAGGTTAAATAGACGGAGTCACCTAGTGCAG” was tested, and the binding signal was 7070 fluorescence intensity (a.u.).
“TAGAGAGCTAGTACTGTAATTGGTAAGGTGACACCATGGCCGGAGTCACCTAGTGCAG” was tested, and the binding signal was 3200 fluorescence intensity (a.u.).
“CTTTATTCTTCCACGCATGATTGGCTACATGGGCATTGAGCGGAGTCACCTAGTGCAG” was tested, and the binding signal was 13600 fluorescence intensity (a.u.).
“TCGTTCCAACTTCAATCAAACTTTCTATTTTAGCATGAACCGGAGTCACCTAGTGCAG” was tested, and the binding signal was 4430 fluorescence intensity (a.u.).
With “GCCCATAATTTATTTCATTTGGGCTTGAGAATAGCCTTTCCGGAGTCACCTAGTGCAG” the binding signal was 9380 fluorescence intensity (a.u.).
